# PubChem BioAssay AID624330 (Southern Research Specialized Biocontainment Screening …, 2012)
# Screen size: about 340,000 compounds; about 2,100 (0.62%) were called active. Inconclusive means that the source gave no clear call. Such entries were picked first, then a sample of the others.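 Rule for the calls: active = first-screen hits whose inhibition reached a set limit at any dose in the follow-up dose series; inconclusive = inhibition above the set first-screen limit but never retested; inactive = the rest.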
# Biological target: Rac GTPase-activating protein 1 (Homo sapiens) (UniProt Q9H0H5)
# Assay: blockers of MgcRacGAP-driven Rac1 GTP hydrolysis – biochemical, ADP Hunter fluorescence, primary and confirmatory, confirmation (AID 624330);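 note: fluorescence reports GDP produced by GAP-driven GTP hydrolysis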
# Conditions: MgcRacGAP-stimulated Rac1 GTP hydrolysis, at 30 µM, stronger effect = higher value, GST-tagged Rac1 F28L mutant substrate
# Chain of UniProt Q9H0H5 (Q9H0H5 whole entry, looked up): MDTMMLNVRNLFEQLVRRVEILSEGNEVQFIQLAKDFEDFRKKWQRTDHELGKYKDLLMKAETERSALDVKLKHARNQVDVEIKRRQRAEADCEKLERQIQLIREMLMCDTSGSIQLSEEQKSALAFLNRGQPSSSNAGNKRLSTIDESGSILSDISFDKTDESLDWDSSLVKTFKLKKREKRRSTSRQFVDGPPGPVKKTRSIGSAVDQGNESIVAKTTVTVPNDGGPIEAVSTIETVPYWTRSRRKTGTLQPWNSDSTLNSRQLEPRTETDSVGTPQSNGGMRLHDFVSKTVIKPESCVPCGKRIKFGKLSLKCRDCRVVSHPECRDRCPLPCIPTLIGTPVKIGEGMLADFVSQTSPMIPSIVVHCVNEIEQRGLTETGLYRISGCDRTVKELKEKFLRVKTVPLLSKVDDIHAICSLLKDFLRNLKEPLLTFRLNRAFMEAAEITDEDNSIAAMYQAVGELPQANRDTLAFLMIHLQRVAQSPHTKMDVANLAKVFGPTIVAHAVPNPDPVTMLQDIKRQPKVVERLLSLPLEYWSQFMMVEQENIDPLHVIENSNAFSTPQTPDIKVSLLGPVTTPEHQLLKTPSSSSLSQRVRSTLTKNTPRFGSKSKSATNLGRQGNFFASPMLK
row,Compound,inhibition
1,COc1cc2[nH]c(=S)nc(NCC3CCCO3)c2cc1OC (centres undefined),inconclusive: 34.6%
2,Nc1ncnc2oc(-c3ccco3)c(-c3ccco3)c12,inconclusive: 43.1%
3,C=CCNC(=S)Nc1ccc(N(C)C)cc1,inconclusive: 45.8%
4,CC1(C)CC(Nc2ccc(Nc3ccccc3)cc2)CC(C)(C)N1,inconclusive: 115%
5,CC1(C)Cc2c(c(N3CCOCC3)nc3snc(N)c23)CO1,inconclusive: 34.2%
6,O=C(CCCC1=NS(=O)(=O)c2ccccc2N1)NCCc1ccc(Cl)cc1,inactive: 12.4%
7,CCOc1ccc(NCc2cccn2-c2nnc(N3CCC(C(=O)NCCCN4CCCCC4CC)CC3)s2)cc1 (centres undefined),inconclusive: 34.5%
8,CC(=O)NS(=O)(=O)c1ccc(N=c2ssc3c2-c2cc(C)ccc2NC3(C)C)cc1,inconclusive: 32%
9,O=C(NCc1nnc(SCC(=O)N2CCOCC2)o1)c1c(F)cccc1F,inactive: 7.33%
10,Cc1nc2ncccn2c1-c1csc(Nc2ccc(N(C)C)cc2)n1,inconclusive: 59.9%
11,CN(C)c1ccc(/C=C/c2ccncc2)cc1,inactive: 16.4%
12,COc1cc(/C=C/c2nc3ccccc3s2)cc(OC)c1O,inconclusive: 32.1%
13,O=C(COc1ccc(F)cc1)N1CCc2ccccc2C1,inconclusive: 32.6%
14,CC(/C=N/n1c(-c2n[nH]c3c2CCC3)n[nH]c1=S)=C\c1ccco1,inconclusive: 35%
15,CCOc1cc(/C=C2\SC(=O)N(c3ccc(O)cc3)C2=O)ccc1O,inconclusive: 35%
16,CCN(CC)c1ccc(NC(=O)c2ccccc2F)cc1,inconclusive: 75.4%
17,COc1ccccc1N1CCN(C(C)C(=O)N2CC(C)OC(C)C2)CC1 (centres undefined),inconclusive: 35%
18,COc1ccc(NCCNc2ccc(OC)cc2)cc1,inconclusive: 42.9%
19,O=C(c1ccc([N+](=O)[O-])cc1)N1CCN(c2cccc3[nH]ccc23)CC1,inconclusive: 94.2%
20,C=CCOc1ccccc1CNc1ccc2c(c1)OCCO2,inconclusive: 32.7%
21,CCNC(=S)N(Cc1cccs1)Cc1cc2cc(OCC)ccc2[nH]c1=O,inactive: 9.83%
22,O=c1[nH]c2ccccc2nc1/C=C/c1ccc(F)cc1,inactive: 2.77%
23,Oc1ccc(/C=N/Nc2ccc3ccccc3c2)c(O)c1,inactive: 9.51%
24,O=C(COc1cccc(F)c1)N1c2ccccc2Sc2ccccc21,inconclusive: 75.8%

row,Compound,inhibition
1,O=C(NC(=S)N1CCN(c2ccc(O)cc2)CC1)c1cccs1,inconclusive: 43.1%
2,CN(C)c1ccc(NC(=O)c2cnsn2)cc1,inconclusive: 65.2%
3,O=C(Nc1ccc(S(=O)(=O)N2CCOCC2)cc1)c1ccc(S(=O)(=O)N2CCOCC2)cc1,inactive: 0.49%
4,CN(C)c1ccc(C=Nc2ccc(N(C)C)cc2)cc1,inconclusive: 38.7%
5,Cc1cc(-c2n[nH]c(=S)n2/N=C/c2cc([N+](=O)[O-])ccc2Cl)n[nH]1,inconclusive: 34.6%
6,COc1ccc(CNCc2ccccc2[N+](=O)[O-])cc1OC,inconclusive: 35.9%
7,Cc1ccc(S(=O)(=O)N2CCC(C(=O)OC(C)C(=O)N3CCOCC3)CC2)cc1 (centres undefined),inactive: 4.25%
8,CCC(Oc1ccccc1)C(=O)Nc1ccccc1N1CCCC1 (centres undefined),inactive: 7.77%
9,N#C/C(=C\c1ccc(O)c(O)c1)C(=O)N1CCc2ccccc21,inconclusive: 69.8%
10,Cc1ccc(CNc2nc(C)nc3sc4c(c23)CCC4)cc1,inactive: 5.5%
11,CCc1nnc(NC(=O)CSc2nnc3ncccn23)s1,inactive: 4.86%
12,CC(=O)Nc1cccc(-c2csc(Nc3cc(C)ccn3)n2)c1,inconclusive: 27.8%
13,O=C(CSC1=NS(=O)(=O)c2ccccc21)Nc1ccccc1,inconclusive: 39.1%
14,O=C1C=CC(=Nc2ccc3c(c2)Cc2cc(F)ccc2-3)O1,inconclusive: 32.1%
15,N#C/C(=C/c1ccc(N2CCCCCC2)o1)c1ccc(F)cc1,inconclusive: 36%
16,CC(NC(=O)C1CCN(c2nnc(N3CCCC3=O)s2)CC1)c1ccccc1 (centres undefined),inactive: 1.18%
17,C=CCc1cc(OC)ccc1OCCON1C(=O)CCC1=O,inactive: 8.6%
18,CC1(C)Oc2ccc(C(=O)N/N=C/c3ccc(O)cc3)cc2NC1=O,inconclusive: 32.1%
19,CC(C)C(=O)c1ccc(O)c(O)c1,inconclusive: 44.2%
20,Cc1nonc1C(=O)N/N=C/c1ccncc1,inactive: 4.44%
21,COc1ccc(NC(=O)CN2CCN(Cc3ccc4c(c3)OCO4)CC2)cc1OC,inconclusive: 32.7%
22,Cc1ccc(CSc2nnc(SCC(=O)N/N=C/c3c[nH]c4ccccc34)s2)cc1,inconclusive: 68.3%
23,COc1ccc(CCNc2ccc(S(=O)(=O)N3CCN(C)CC3)cc2[N+](=O)[O-])cc1,inactive: 1.77%
24,COCC(=O)N1C[C@H]2CON(C)[C@H]2C[C@H]1c1cccc(-c2ccccc2OC)c1,inactive: 15.1%

row,Compound,inhibition
1,COc1cc(/C=C/C(=O)NC(=O)c2ccccc2O)ccc1O,inconclusive: 105%
2,C=CCn1c(SCC(=O)c2ccc(O)c(O)c2)nnc1-c1ccc(C)cc1,inactive: 24.7%
3,Cc1ccsc1C(=O)OCC(=O)NC1CCCCC1,inactive: -3%
4,COc1ccc(NC(=O)/C(Cl)=C(/Cl)S(=O)Cc2ccc(C)cc2)cn1 (centres undefined),inconclusive: 37.8%
5,CCOC(=O)/C=C1\Nc2ccccc2OC1=O,inconclusive: 32.9%
6,O=C(N/N=C/c1ccncc1)c1cc2ccccc2cc1O,inconclusive: 33.4%
7,Cc1nn(-c2ccccc2)c2c1C(c1cccs1)C(C#N)=C(N)O2 (centres undefined),inconclusive: 41.7%
8,COc1cc(CN2CCN(Cc3ccc(SC)cc3)CC2)cc(OC)c1O,inconclusive: 34.9%
9,C=CCOc1cccc(CNc2ccc3[nH]c(=O)[nH]c3c2)c1,inconclusive: 67.2%
10,Cc1ccc(SCC(=O)N2c3ccccc3Sc3ccccc32)cc1,inactive: 6.99%
11,COc1ccc(NC(=O)[C@H](C)NC(N)=O)cc1S(=O)(=O)Nc1cc(C)ccc1Br,inactive: 9.93%
12,CCOc1ccc(/C=N/Nc2cc(N3CCOCC3)ncn2)c(O)c1,inconclusive: 33.7%
13,CSc1ccccc1NC(=S)Nc1cc(C)cc(C)c1,inactive: 9.21%
14,CC(=O)Nc1ccc(NC(=O)CC(c2ccccc2)c2ccccc2)cc1,inactive: 11.3%
15,O=C1NN(c2ccc(Cl)cc2)C(=O)/C1=C\c1ccc(-c2cccc(C(=O)O)c2)o1,inconclusive: 38.4%
16,COc1ccc(NC(C)=O)cc1C,inactive: 16.4%
17,O=c1cc(-c2ccc(Cl)c(Cl)c2)[nH][nH]1,inactive: 8.61%
18,CC1C(=O)Nc2ccc(S(=O)(=O)NCc3ccc(Cl)cc3)cc2NC1=O (centres undefined),inactive: 7.58%
19,Oc1ccc(/C=N/Nc2ccc(Cl)nn2)cc1O,inconclusive: 95.2%
20,O=C(c1ccco1)N1CCc2ccccc21,inactive: 3.81%
21,O=C1/C(=C/c2ccco2)SC(=S)N1c1cccnc1,inconclusive: 62.9%
22,CN(Cc1ccccc1)C(=O)c1cc(-c2ccc(Br)cc2)on1,inactive: 7.89%
23,CCCCOc1ccc2c(c1)C(=O)c1cc(O)ccc1-2,inconclusive: 35.6%
24,CCOc1ccc(OCC)c(NC(=O)CN2CCN(c3cc(C)ccc3C)CC2)c1,inconclusive: 24.2%

row,Compound,inhibition
1,CN(C)/C=C(\C#N)C(=O)Nc1ccc(O)cc1F,inconclusive: 68.5%
2,CN(C(=O)CSc1nnc(-c2ccccc2F)n1N)C1CCCCC1,inactive: 4.13%
3,CN(C)c1ccc(NC(=O)CSc2nnc(-c3ccco3)c(-c3ccco3)n2)cc1,inconclusive: 66.4%
4,COCCN(C(=S)Nc1c(C)cc(C)cc1C)C(C)c1cccnc1 (centres undefined),inconclusive: 35.6%
5,CCC(=O)Nc1ccc(SC#N)cc1C,inconclusive: 37.6%
6,COc1cc(/C=C/C(=O)OCC(=O)N2CCc3ccccc3C2)ccc1O,inconclusive: 59.8%
7,C#CCOCCOCCOCCNc1nc(N2CCN(C(=O)CCCCCCCCCCNC(=O)[C@H](CCCCN)n3cc(C)nn3)CC2)nc(N2CCN(C(=O)CCCCCCCCCCNC(=O)[C@H](CO)n3cc(CCCSC)nn3)CC2)n1,inconclusive: 53%
8,CN(C)CCNC(=O)c1ccc(Cl)c2cc3ccccc3nc12,inconclusive: 33.7%
9,COc1ccc(CN(C)C(=O)[C@H](Cc2ccccc2)NC(=O)c2ccco2)c(OC)c1,inactive: 0.3%
10,c1cc2c3c(cccc3c1)NC1(CCCC1)N2,inactive: -1.27%
11,N#C/C(=C/c1ccc(O)c(O)c1)c1nc2ccccc2[nH]1,inconclusive: 98.1%
12,Nc1ccc2nc(-c3cccs3)[nH]c2c1,inconclusive: 94.5%
13,O=C(NC1CCCC1)c1sc(=S)n2c1[nH]c(=O)c1ccccc12,inconclusive: 33.6%
14,Cc1ccc(OCC(=O)N2CCN(S(=O)(=O)c3ccccc3[N+](=O)[O-])CC2)cc1,inactive: 5.54%
15,COc1cc(/C=C2\SC(=S)N(NS(=O)(=O)c3ccc(C)cc3)C2=O)ccc1O,inconclusive: 56.5%
16,N#C/C(=C\c1ccc(O)c(O)c1)C(=O)Nc1cccc2ncccc12,inconclusive: 69%
17,COC(=O)Cc1ccc(O)c(N)c1,inconclusive: 38.5%
18,CN(C)/C=C1\C=C(c2ccccc2)OC1=O,inconclusive: 32.5%
19,COc1ccc(N2CCN(c3ccc(NC(=O)NN)cc3)CC2)cc1,inconclusive: 34.2%
20,Oc1ccc2c(c1)oc1cc(O)ccc12,inconclusive: 129%
21,Cn1c(-c2ccccc2)cnc1NCc1ccc(F)cc1,inconclusive: 35.1%
22,COc1ccc(N2C(S)=C(C#N)C(=O)NC23CCCCC3)cc1,inconclusive: 34.4%
